Reference: the antibiotic and cytotoxicity screens of Wong et al. (2023)
This is one part of the list.

Tested on: HSkMC (human skeletal muscle cells)
Assay: cytotoxicity call (relative viability < 0.9)
Conditions: 10 µM

Row | Structure (SMILES) | cytotoxicity call
1 | Nc1nc(=O)c2nc(C(=O)O)cnc2[nH]1 | inactive
2 | CN(C)CCCNC(=O)C[C@@H]1C=C[C@H](NC(=O)Cc2cccnc2)[C@@H](CO)O1 | inactive
3 | C[C@H]1CCCCO[C@H](CN(C)C(=O)Nc2ccc(F)cc2)[C@@H](C)CN([C@@H](C)CO)C(=O)c2cc(NC(=O)NC3CCCCC3)ccc2O1 | inactive
4 | C[C@@H]1CN([C@@H](C)CO)C(=O)c2cccc(NC(=O)C3CCCCC3)c2O[C@@H]1CN(C)Cc1ccc(C(F)(F)F)cc1 | inactive
5 | CNC[C@H]1OCCCC[C@@H](C)Oc2ccc(NC(=O)Nc3ccc(C(F)(F)F)cc3)cc2C(=O)N([C@@H](C)CO)C[C@H]1C | inactive
6 | COc1cccc(S(=O)(=O)N(C)C[C@@H]2Oc3ncc(-c4cccc(F)c4)cc3C(=O)N([C@H](C)CO)C[C@@H]2C)c1 | inactive
7 | COc1ccc(NC(=O)Nc2ccc3c(c2)C(=O)N([C@H](C)CO)C[C@@H](C)[C@@H](CN(C)C(=O)NC(C)C)OCCCC[C@H](C)O3)cc1 | inactive
8 | CC1(C(=O)O)CCC2(C)CCC3(C)C(=CC(=O)C4C5(C)CCC(O)C(C)(C)C5CCC43C)C2C1 (centres undefined) | inactive
9 | C[C@H]1CCCCO[C@H](CN(C)C(=O)NC2CCCCC2)[C@@H](C)CN([C@@H](C)CO)C(=O)c2cc(NC(=O)Nc3ccccc3)ccc2O1 | inactive
10 | C[C@H]1CN([C@@H](C)CO)C(=O)Cc2cc(NS(=O)(=O)c3ccccc3)ccc2O[C@H]1CN(C)Cc1ccncc1 | inactive
11 | COc1cc2nc(N3CCN(C(=O)C4CCCO4)CC3)nc(N)c2cc1OC.Cl (centres undefined) | inactive
12 | CC(C)NC(=O)Nc1ccc2c(c1)C(=O)N([C@@H](C)CO)C[C@H](C)[C@@H](CN(C)C(=O)Nc1ccccc1)OCCCC[C@H](C)O2 | inactive
13 | Cc1noc(C)c1S(=O)(=O)N(C)C[C@H]1OCCCC[C@@H](C)Oc2ccc(NC(=O)Nc3ccc(C(F)(F)F)cc3)cc2C(=O)N([C@@H](C)CO)C[C@@H]1C | inactive
14 | CC(=O)N1C(=O)N(C(C)=O)[C@@H](O)[C@H]1O | inactive
15 | C[C@H](CO)N1C[C@H](C)[C@@H](CN(C)Cc2ccc(-c3ccccc3)cc2)Oc2ccc(NC(=O)NC3CCCCC3)cc2C1=O | inactive
16 | CC(C)NC(=O)N(C)C[C@H]1OCCCC[C@H](C)Oc2ccc(NC(=O)C3CCCCC3)cc2C(=O)N([C@H](C)CO)C[C@@H]1C | inactive
17 | C[C@H](CO)N1C[C@H](C)[C@H](CN(C)C(=O)CN(C)C)Oc2cc(C#Cc3cccnc3)ccc2S1(=O)=O | inactive
18 | CN(C)CCCNC(=O)C[C@@H]1C=C[C@@H](NC(=O)Cc2cccnc2)[C@@H](CO)O1 | inactive
19 | CO[C@@H](CN(C)C(=O)c1ccccc1F)[C@H](C)CN([C@@H](C)CO)S(=O)(=O)c1ccc(Cl)cc1 | inactive
20 | C=CC[C@H](CC(=O)N[C@@H](CO)Cc1ccccc1)C(=O)N[C@@H](COC(=O)[C@@H](CC=C)Cc1ccc(F)cc1)Cc1c[nH]c2ccccc12 | inactive
21 | C[C@@H]1CN([C@H](C)CO)C(=O)c2cccc(NC(=O)c3cnccn3)c2O[C@@H]1CN(C)C(=O)Nc1ccc(F)cc1 | inactive
22 | CO[C@@H]1[C@H](N(C)C(=O)c2ccccc2)C[C@H]2O[C@]1(C)n1c3ccccc3c3c4c(c5c6ccccc6n2c5c31)C(=O)NC4 | inactive
23 | O=C(C[C@@H]1C[C@@H]2c3cc(NC(=O)C4CCOCC4)ccc3O[C@@H]2[C@H](CO)O1)NCCN1CCCCC1 | inactive
24 | C[C@H]1CN([C@@H](C)CO)S(=O)(=O)c2ccc(C#CC(C)(C)O)cc2O[C@H]1CN(C)Cc1ccccc1 | inactive
25 | C[C@H]1CCCCO[C@@H](CN(C)Cc2ccc(C(=O)O)cc2)[C@@H](C)CN([C@@H](C)CO)C(=O)c2cc(NC(=O)Nc3cccc4ccccc34)ccc2O1 | inactive
26 | C[C@H]1CN([C@@H](C)CO)S(=O)(=O)c2ccc(-c3ccc(F)cc3)cc2O[C@H]1CN(C)C(=O)C1CCOCC1 | inactive
27 | COc1ccc(CN(C)C[C@H]2OCCCC[C@H](C)Oc3ccc(NC(=O)c4ccccc4)cc3C(=O)N([C@@H](C)CO)C[C@H]2C)cc1 | inactive
28 | C[C@@H]1CN([C@@H](C)CO)C(=O)Cc2cc(NC(=O)Cc3ccccc3)ccc2O[C@H]1CN(C)Cc1ccc(Cl)c(Cl)c1 | inactive
29 | COc1ccc2c3c(n(c2c1)C)[C@@H](CO)N(C[C@]13CCN(CC1)C(=O)Nc1cccc(c1)F)S(=O)(=O)C | inactive
